Test results from the supplement of paper PMC7826260.
This is one part of the list. Viral Rep nickase domains cut single-stranded DNA in vitro (3 µM enzyme, 1 h, 37 °C); shown is the middle of each 90-letter strand. The score is log2 (uncut reads / reads without enzyme); the lower, the more was cut; hits are not called. Because reads are shares of a total, they shift together; values above 0 arise when much of the pool is cut.

Tested on: T1, Rep nickase domain of tomato golden mosaic virus
T1 sequence (residues 1-124, tag not shown): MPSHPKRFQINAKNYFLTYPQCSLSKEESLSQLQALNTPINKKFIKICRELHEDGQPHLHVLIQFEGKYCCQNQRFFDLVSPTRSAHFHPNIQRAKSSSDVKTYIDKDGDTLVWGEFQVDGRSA
Assay: uncleaved DNA left, log2 of reads against the no-enzyme library (log2 ratio); higher = less cleavage (more negative = more Rep cleavage of the k-mer); sequences stand for … in CTCGTCCG…ACCGGAGA
Experimental: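 A pool of 90-nt single-stranded DNAs with seven random bases just before the constant AC of the nick site (name = the seven bases) was cut by 3 µM recombinant His6-SUMO-tagged Rep nickase domain (300 nM DNA, 50 mM HEPES pH 8.0, 50 mM NaCl, 1 mM MnCl2, 1 h, 37 °C, three replicates). Uncut DNA was amplified and sequenced.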

Sequence | uncleaved DNA left (log2)
TGTGCTA | 0.0229
AACGTGA | -0.0726
AGCGAGC | 0.0471
GAGCGCA | 0.161
TCCATTC | -0.127
CTTGTGG | 0.0259
CTAATGC | -0.0202
CATCCTC | -0.0937
AGAACGG | 0.216
GTACACT | 0.0777
GCTAGAT | 0.0719
ACGTCGT | -0.0924
GAAGTTA | 0.126
CCGCAAC | -0.0356
TGACTGA | -0.104
GCAAGAC | 0.0788
AAAGCTT | -0.0447
TTATCTA | 0.0196
ATAGTGC | -0.0246
ACCCCTT | 0.0895

Sequence | uncleaved DNA left (log2)
TGGCAGA | 0.0599
AGGTCGC | -0.0204
GATTGTA | 0.0825
CTAGAAC | 0.0682
TAATGAT | -3.94
TGAAATG | -0.0236
TTCCTTT | -0.0593
GTCCAGT | 0.0419
ACACACA | -0.0525
TTAGATG | 0.0224
AATCCCC | -0.0155
GTGTTTC | 0.105
GTCTTTC | 0.0281
TGTACAG | 0.0467
AGGTATT | -0.162
GAAATGA | -0.0242
TGGCCCG | -0.0263
AACGGAC | 0.0414
TACGGAG | 0.0105
CACGATG | 0.0214
